From article PMC4336329 (PLoS ONE, 2015) come the findings set out here.

In all, about 310,000 compounds went through this assay and about 2,200 (0.71%) showed an effect of 50% or more. Effects have a minus sign here. The list shows a part of the results.

The target of the experiment is human ether-à-go-go-related gene (hERG) potassium channel (human, UniProt Q12809). The experiment can be described thus: primary screen, population patch clamp on CHO cells stably expressing hERG.
Sequence of human ether-à-go-go-related gene (hERG) potassium channel (Q12809 whole entry, looked up): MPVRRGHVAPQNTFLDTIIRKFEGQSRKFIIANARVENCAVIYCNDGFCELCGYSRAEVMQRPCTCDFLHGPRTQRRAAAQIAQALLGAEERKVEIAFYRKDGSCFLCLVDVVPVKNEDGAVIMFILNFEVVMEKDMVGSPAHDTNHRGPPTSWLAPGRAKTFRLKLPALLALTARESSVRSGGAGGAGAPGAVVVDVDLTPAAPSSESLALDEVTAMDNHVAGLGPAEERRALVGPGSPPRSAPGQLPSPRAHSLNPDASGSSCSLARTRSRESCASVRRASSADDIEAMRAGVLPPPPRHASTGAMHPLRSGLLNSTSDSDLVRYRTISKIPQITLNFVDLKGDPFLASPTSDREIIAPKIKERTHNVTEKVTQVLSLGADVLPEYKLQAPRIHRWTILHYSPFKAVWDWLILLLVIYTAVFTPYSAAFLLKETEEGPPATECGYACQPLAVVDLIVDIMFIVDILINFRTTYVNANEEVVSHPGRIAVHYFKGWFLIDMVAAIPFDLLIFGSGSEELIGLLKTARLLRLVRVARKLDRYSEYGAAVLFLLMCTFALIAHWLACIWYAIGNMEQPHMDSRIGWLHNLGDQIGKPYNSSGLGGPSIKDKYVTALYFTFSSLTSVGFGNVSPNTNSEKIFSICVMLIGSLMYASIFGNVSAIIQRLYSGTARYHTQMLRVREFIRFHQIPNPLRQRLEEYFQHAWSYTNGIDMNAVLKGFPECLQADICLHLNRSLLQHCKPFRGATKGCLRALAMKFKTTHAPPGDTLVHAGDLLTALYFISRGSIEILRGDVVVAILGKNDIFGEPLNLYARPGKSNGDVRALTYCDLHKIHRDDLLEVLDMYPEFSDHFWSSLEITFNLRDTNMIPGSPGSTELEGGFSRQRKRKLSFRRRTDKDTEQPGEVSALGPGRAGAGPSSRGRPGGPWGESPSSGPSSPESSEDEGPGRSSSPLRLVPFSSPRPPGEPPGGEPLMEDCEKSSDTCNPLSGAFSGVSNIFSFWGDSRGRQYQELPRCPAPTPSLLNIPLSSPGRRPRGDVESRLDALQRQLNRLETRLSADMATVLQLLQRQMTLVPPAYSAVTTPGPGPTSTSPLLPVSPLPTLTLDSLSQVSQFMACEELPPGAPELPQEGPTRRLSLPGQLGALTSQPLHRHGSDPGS
In the case of `O=C(NNC(=O)c1ccc(Cl)c(Cl)c1)c1cccnc1`, the “hERG current change (%, negative = inhibition) at 1uM” value amounted to 5.03%. In the case of `Cc1cccc(OCC(=O)NCCN2CCOCC2)c1` it was 2.51%; in that of `Cn1c(Cc2ccccc2)nnc1SCc1nc2ccccc2c(=O)[nH]1`, 6.64%.

With `COc1ccc(S(=O)(=O)N2CCOCC2)cc1NC(=O)c1cc2c(s1)CCCC2`, the “hERG current change (%, negative = inhibition) at 1uM” value was 11.4%. In the case of `COc1cc(NC2c3ccccc3C(=O)N2Cc2ccccc2)cc(OC)c1OC` (stereo not shown) it was 5.81%; in that of `C=CCN(c1ccccc1)S(=O)(=O)c1ccc2c(c1)NC(=O)C(C)S2` (stereo not shown), 5.69%.

As to `COc1ccc(Br)cc1C1Nc2ccccc2C(=O)N1NC(=O)c1ccncc1` (stereo not shown), the “hERG current change (%, negative = inhibition) at 1uM” value amounted to 1.64%. The figure for `Cc1ccccc1N1CCN(C(=O)C2CCCCC2)CC1` is 13.6%.

`CCOc1ccc(OCCOc2ccc(/C=C/C(=O)O)cc2OCC)cc1`: the “hERG current change (%, negative = inhibition) at 1uM” value turned out to be 5.98%. The figure for `O=C(COc1ccc(Br)cc1Br)NNC(=O)c1cccs1` is 9.74%; for `Cc1ccc(N)c2c1OCCC2=O` it is 14%; for `CC1(C)CC(=O)C2=C(C1)NC(=O)CC2c1cc(F)ccc1F` (stereo not shown) it is -1.49%.

Consider `COc1ccc([N+](=O)[O-])cc1NC(=O)c1cccs1`, for which the “hERG current change (%, negative = inhibition) at 1uM” value came to 13.4%.

Turning to `CSCC[C@H](NC(=O)C1CCN(S(=O)(=O)c2ccccc2)CC1)C(=O)NC1CC1`, the “hERG current change (%, negative = inhibition) at 1uM” value is 13.8%. The figure for `O=C(CSc1nc(-c2ccco2)cc(C(F)(F)F)n1)N1CCN(c2ccc(Cl)cc2)CC1` is 8.68%; for `Cc1ccc(C)c(NC(=O)CSc2c(C)n[nH]c2C)c1` it is 14.9%; for `COc1ccc(NS(=O)(=O)c2cccc(C(=O)NNC(=O)NCCCl)c2)cc1` it is 12.7%. With `Cc1ccc(NC(=O)C(=O)NCCCN2CCCC2=O)cc1`, the “hERG current change (%, negative = inhibition) at 1uM” value is given as -6.56%. As for `CC(NC(=O)c1cc2cc(F)ccc2[nH]1)c1ccccc1` (stereo not shown), the “hERG current change (%, negative = inhibition) at 1uM” value is on record as 8.69%. The figure for `Cc1ccc(Oc2c(C(N)=O)cc([N+](=O)[O-])cc2[N+](=O)[O-])cc1` is -0.121%. On to `O=C(COC(=O)c1ccc(S(=O)(=O)NCc2ccco2)cc1)NCC1CCCCC1`, for which the “hERG current change (%, negative = inhibition) at 1uM” value came out at 8.83%. Consider `Cc1cc(=O)oc(C)c1C(=O)NCc1ccc(F)cc1`, for which the “hERG current change (%, negative = inhibition) at 1uM” value came to 4.86%. `OCc1cc(Br)ccc1OCc1nc2ccccc2s1`: the “hERG current change (%, negative = inhibition) at 1uM” value was 15.3%. In the case of `O=C(CN(c1ccc(Cl)cc1)S(=O)(=O)c1ccc(Cl)c([N+](=O)[O-])c1)NCCc1ccc(F)cc1` it was 11.6%; in that of `COc1ccc(NC(=O)CN(C)C(=O)/C=C/c2cn(Cc3ccccc3)nc2-c2cccnc2)cc1`, -4.4%.

In the case of `COc1cc([N+](=O)[O-])ccc1NC(=O)CSc1nccn1C`, the “hERG current change (%, negative = inhibition) at 1uM” value is 8.78%.

For `CC1CCc2sc(C(=O)N/N=C/c3ccc([N+](=O)[O-])cc3)cc2C1` (stereo not shown), the “hERG current change (%, negative = inhibition) at 1uM” value is listed as 8.05%. The figure for `CCC(C)n1nccc1NC(=O)C(C)OC(=O)c1cc2ccccc2[nH]1` (stereo not shown) is -8.48%; for `CCCCC(=O)NC(c1ccco1)c1cc(Cl)c2cccnc2c1O` (stereo not shown) it is -8.66%; for `CCOC(=O)c1nc(N/N=C/c2ccccc2)sc1Br` it is 5.05%. With `O=C(c1cc2c(s1)CCC2)N1C(=O)c2ccccc2S1(=O)=O`, the “hERG current change (%, negative = inhibition) at 1uM” value is reported as 21.9%. In the case of `CCC(=O)NNC(=S)NC(=O)c1ccc(C)cc1` it was 4.29%; in that of `COc1ccc(NC(=S)N(CCCN2CCOCC2)Cc2cn(C)c3ccccc23)cc1OC`, 3.03%. The figure for `O=C(CNS(=O)(=O)c1ccc(Br)cc1)OCc1cc(=O)n2cc(Br)ccc2n1` is 4.46%. The figure for `CCCOc1ccc(C(=O)NNC(=O)CCNC(=O)c2ccccc2Cl)cc1OC` is -8.29%. On to `CC(C)C[C@H](NC(=O)c1[nH]cnc1C(=O)N[C@@H](Cc1ccccc1)C(=O)OCc1ccccc1)C(=O)OC(C)(C)C`, for which the “hERG current change (%, negative = inhibition) at 1uM” value is reported as 7.61%. In the case of `Fc1ccc(COc2ccc(-c3nnco3)cc2)cc1` it was 2.24%. In the case of `O=C(CSc1ccccc1)Nc1nnc(C2CC2)s1` it was 12.3%; in that of `CS(=O)(=O)c1ccc(Cl)c(NC(=O)COC(=O)c2cccc(S(=O)(=O)N3CCCCC3)c2)c1`, 4.76%. In the case of `O=C(OCc1ccc([N+](=O)[O-])cc1)C1CC(=O)N(CCc2ccccc2)C1` (stereo not shown) it was -56.3%; in that of `Cc1nc2sc(C(=O)Nc3ccccc3)c(N)c2c(C)c1[N+](=O)[O-]`, 12.5%; in that of `COc1ccccc1NC(=O)COC(=O)c1ccccc1OCC(=O)Nc1ccc(SC(F)F)cc1`, 3.96%.

Turning to `NC(=NC(=O)c1ccc(Cl)cc1)N1N=CCC1c1ccccc1` (stereo not shown), the “hERG current change (%, negative = inhibition) at 1uM” value is 10.1%. The figure for `COCC(=O)N(Cc1ccc(OC)cc1)Cc1nc2ccccc2c(=O)[nH]1` is 9.95%. Turning to `CC(Oc1ccccc1)C(=O)OCC(=O)NC(=O)NC1CCCCC1` (stereo not shown), the “hERG current change (%, negative = inhibition) at 1uM” value was 8.31%. In the case of `O=c1[nH]c(O)c(N=Nc2cccc(S(=O)(=O)N3CCOCC3)c2)c(=O)[nH]1` it was -37.6%; in that of `N/C(=N\OC(=O)Cc1ccccc1[N+](=O)[O-])c1ccc(Br)cc1`, 20.2%.

Regarding `CCc1ncc(C)nc1CC`, the “hERG current change (%, negative = inhibition) at 1uM” value is recorded as 13.1%. For the compound `COc1cccc(/C=C2\N=C(c3cncc(Br)c3)OC2=O)c1`, the “hERG current change (%, negative = inhibition) at 1uM” value is given as 17.1%.

On to `CC(C)(C)NC(=O)c1ccncc1`, for which the “hERG current change (%, negative = inhibition) at 1uM” value was determined as 13.8%. In the case of `O=S(=O)(Nc1ccc2cn[nH]c2c1)c1ccc(Cl)s1` it was 14%; in that of `CSc1ccccc1NC(=O)CN(C)C(=O)c1ccc2c(c1)OCCO2`, 5.99%; in that of `COc1ccc(C[C@H]2CN3C(=NC[C@@H]3Cc3ccccc3)N2CCNC(=O)c2ccc(C)c(Br)c2)cc1`, -16.7%. As to `COc1ccc(S(=O)(=O)N2CCCC2CNC(=O)C(=O)NC2CCCCCC2)cc1` (stereo not shown), the “hERG current change (%, negative = inhibition) at 1uM” value was -3.96%. Regarding `O=S(=O)(c1ccc(OCc2ccc(Br)cc2)cc1)N1CCOCC1`, the “hERG current change (%, negative = inhibition) at 1uM” value came out at 7.49%. In the case of `O=C(NCCc1ccc(Cl)cc1)C1CCC(=O)N1Cc1ccc(F)cc1` (stereo not shown) it was 3.46%; in that of `OCC1(Cc2ccc(F)cc2F)CCCN(Cc2ccc(Cl)cc2)C1` (stereo not shown), -15%.

For `C/C(=C\C(=O)c1ccccc1)Nc1ccc(N2CCOCC2)cc1`, the “hERG current change (%, negative = inhibition) at 1uM” value is reported as 11.8%.

For `CCOc1ccc(CCNC(=O)COC(=O)c2ccc(OC)c(OC)c2OC)cc1OCC`, the “hERG current change (%, negative = inhibition) at 1uM” value stood at 13.8%. The figure for `CCOc1ccc(CCNC(=O)c2ccc(F)c(S(=O)(=O)N3CCOCC3)c2)cc1OCC` is 6.28%. In the case of `CC1(C)C(=O)Nc2ccccc2N1C(=O)COC(=O)COc1cccc(C(F)(F)F)c1` it was -0.263%; in that of `Cc1ccc(NC(=O)C(CC(=O)O)C2CCCO2)c(C)c1` (stereo not shown), 16%. In the case of `CCOc1ccc(-c2c(C(=O)N/N=C(\C)c3ccccc3OC)nnn2-c2nonc2N)cc1` it was 12.5%.

With `Fc1ccc(CSc2nc3ncc(Br)cc3[nH]2)cc1`, the “hERG current change (%, negative = inhibition) at 1uM” value came out at 4.39%. In the case of `C=CCn1c(C(CCCC)CC(O)COCCC)n[nH]c1=S` (stereo not shown) it was 4.49%; in that of `Cc1nnc(SCC(=O)N(C(C)C)C(C)C)nc1C`, 13.7%; in that of `Cc1ccc(NC(=O)C2CCCN(S(=O)(=O)c3cnc[nH]3)C2)c(Br)c1` (stereo not shown), 6%. In the case of `Cn1cc(CC(=O)Nc2cccc(C#N)c2)c2ccccc21` it was -0.916%; in that of `Cc1ccc(S(=O)(=O)N2CC(=NN=C(N)N)C2)cc1`, 16.4%.

As for `Cc1ccc(S(=O)(=O)N(CC(=O)Nc2cccnc2)c2ccccc2C)cc1`, the “hERG current change (%, negative = inhibition) at 1uM” value is on record as 11.8%. In the case of `Clc1ccc(N2CCN(c3ccnc(Cl)n3)CC2)cc1` it was -2.08%; in that of `Cc1cccnc1CCNCc1c(C(=O)N2C[C@@H](C)O[C@@H](C)C2)nc2ccc(Cl)cn12`, 2.33%. The figure for `Cc1cc(NC(=O)CSc2nnc(CNc3cccc(C(F)(F)F)c3)n2Cc2ccco2)no1` is -18.3%. As for `Cn1cc(S(=O)(=O)Nc2ccc(Br)cc2F)c(=O)n(C)c1=O`, the “hERG current change (%, negative = inhibition) at 1uM” value is 15.9%. The figure for `CC1Sc2ccc(S(=O)(=O)N3CCC(C(=O)NCc4ccc(Cl)cc4)CC3)cc2NC1=O` (stereo not shown) is 8.37%; for `O=C1NC(=O)C2(CCC(C(=O)O)C2)N1` (stereo not shown) it is 14%; for `CC1CC(=O)c2cnc(NCc3ccco3)nc2C1` (stereo not shown) it is 12.2%.

Consider `O=C(/C=C/c1ccc(N2CCCCC2)c([N+](=O)[O-])c1)c1ccc(O)cc1`, for which the “hERG current change (%, negative = inhibition) at 1uM” value came to 10.9%.

Consider `COc1cc2[nH]c3c(N4CCC(C(N)=O)CC4)ncnc3c2cc1OC`, for which the “hERG current change (%, negative = inhibition) at 1uM” value is on record as 9.48%. The figure for `COc1ccc(S(=O)(=O)N2CCC(C(=O)NC3CC3)CC2)cc1C` is 12.1%. In the case of `COc1ccc(COC(=O)C2CCN(C(=O)c3ccc(Cl)cc3)CC2)cc1F` it was -6.26%. As for `Nc1ccccc1SCCS(=O)(=O)c1ccc(Cl)cc1`, the “hERG current change (%, negative = inhibition) at 1uM” value was found to be 19.8%. The figure for `Cc1ccccc1C(=O)Nc1ccnn1C1CCN(Cc2ccncc2)CC1` is -3.47%; for `CN1C(=O)CC(C(=O)O)SC1=Nc1ccc(F)cc1` (stereo not shown) it is -0.107%; for `Cc1ccc(NC(=O)Cn2nnc(C(=O)NCCc3ccccc3)c2N)cc1Cl` it is 13.5%.

`Cc1ccc([N+](=O)[O-])cc1NC(=O)C(C)NS(=O)(=O)c1ccc(F)cc1` (stereo not shown): the “hERG current change (%, negative = inhibition) at 1uM” value is 13.2%. In the case of `COCCNC(=S)Nc1ccccc1Cc1ccccc1` it was 11.8%; in that of `Cc1ccc(-n2c(SCC(=O)N(C)C)nnc2-c2ccco2)cc1`, 9.65%.
